Consider 26 compounds from PubChem BioAssay AID1508624 (National Center for Advancing Translational Sciences (NCATS), 2021).

In all, about 48,000 compounds went through this assay and about 120 (0.25%) were called active. Roughly 4% stayed inconclusive and do not appear here. The call rests on the fitted dose curve; in most records, active means well fitted activation curve with a large enough effect; inconclusive means small, poorly fitted or top-dose-only effect, or another doubt; inactive means no such curve, though single readings can be large or run the other way. The list shows a part of the results, in another mix than the full data. The source gives no active or inactive call for entries shown without one.
Potency means the concentration at half of the fitted maximal effect.

A short description of the test: Primary qHTS for Identification of Small Molecule Activators of Huntingtin-Antisense Promoter Activity. Further: nearly all actives have a fitted effect of over 55% in size. To be noted: HEK293 HTT-AS promoter firefly luciferase reporter, 24 h; activity change, positive = activation: at 57.5 µM (top of the series), percent change from vehicle, -100% = no light. The essentials: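 HEK293 luciferase promoter-reporter cells (2,500/well) plated 24 h, then compounds added at up to 57.5 uM final for 24 h at 37 °C. Firefly luminescence by Dual-Glo, normalized to vehicle (0%) and zero RLU (-100%).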
Background: qHTS replaces the single test concentration by a dilution series.
With `Cc1cccc(Nc2nc3c(S(=O)(=O)c4ccc(Br)cc4)nnn3c3ccsc23)c1C`, the “activity change, positive = activation” value was inactive: -17.5%. As to `Cc1cc(C)cc(NC(=O)Cn2c(=O)n(CC(=O)NCCc3ccccc3)c(=O)c3ccccc32)c1`, the “activity change, positive = activation” value is inactive: -41.6%. Consider `CCOCCCNC(=O)Cn1nc(CC)n2c(cc3c(OC)cccc32)c1=O`, for which the activity change, positive = activation was determined as 2.15%. Same read-out and setting: as for `Cc1cccc(OCCn2c(-c3ccc(Cl)cc3)nc3ccccc3c2=O)c1C`, the figure is 5.67%. `COc1ccc(-c2nc3ccccc3s2)cc1NC(C)=O`: the Potency was active: 1.41 µM.

For the compound `CCc1ccc(NC(=O)CC2C(=O)N(c3ccc(Cl)cc3)C(=O)N2C2CCCC2)cc1` (stereo unspecified), the “activity change, positive = activation” value is inactive: -20.6%.

Consider `COc1ccc(CCN2C(=O)CN(C3CCCCCC3)C(=O)C2c2ccc(C)cc2)cc1OC` (stereo unspecified), for which the activity change, positive = activation was -8.15%. The same measure, in the same setting: as for `CCCc1cc(=O)[nH]c(Nc2ccc(O)cc2C)n1`, the figure is -7.19%; as for `Cc1cccc(C(CC(=O)NCC2(c3ccccc3)CCCC2)c2ccccc2)c1O` (stereo unspecified), -43.5%. Still for that read-out and setting: under `COC(=O)c1ccc(NC(=O)CC2C(=O)N(c3cccc(OC)c3)C(=O)N2Cc2cccc(OC)c2)cc1` (stereo unspecified) stands -5.07%; under `O=S(=O)(Nc1nc2n(n1)C(c1ccccc1)C=C(c1ccc(Cl)cc1)N2)c1ccccc1` (stereo unspecified), inactive: -6.67%.

Consider `CCOc1ccc(-c2nc3c(c(CC)nn3-c3ccccc3)c3cc(OC)c(OC)cc23)cc1`, for which the activity change, positive = activation was found to be 2.3%. Still for that read-out and setting: as for `CCCCOc1ccc(S(=O)(=O)Nc2cccc(-c3ccc(N4CCOCC4)nn3)c2)cc1`, the figure is 12.8%; as for `CC(=O)Nc1cc(-c2ccccc2)nn1Cc1cccc(Cl)c1`, inactive: -19.6%; as for `COc1cccc(-c2nc3c(c(C)nn3-c3ccccc3)c3cc(OC)c(OC)cc23)c1`, -3.49%. The same measure, in the same setting: as for `CC1Cc2cc(S(=O)(=O)CCC(=O)Nc3ccc(Cl)cc3F)ccc2N1C(=O)C1CC1` (stereo unspecified), the figure is -27.7%; as for `COc1ccc(CCNC(=O)CCc2c(C)c3cc4c(C)coc4cc3oc2=O)cc1`, -17.3%. Consider `COc1cc2oc(=O)c(CC(=O)NCc3ccc(OC)c(OC)c3)c(C)c2cc1Cl`, for which the activity change, positive = activation was determined as 6.39%. Still for that read-out and setting: as for `COc1ccc2c(c1)cc1c(=O)n(CC(=O)NCc3ccco3)nc(C)n12`, the figure is -9.17%; as for `COc1ccc(NC(=O)c2c(C)oc3ccc(O)c(CN4CCCC4)c23)cc1Cl`, -3.41%; as for `COc1ccc(NC(c2ccc(F)cc2)c2nnc(-c3ccccc3Cl)o2)cc1Cl` (stereo unspecified), -14.4%. On the same count and under the same terms, as for `COc1ccc(S(=O)(=O)Nc2cccc(-c3ccc(N4CCCCCC4)nn3)c2)cc1F`, the figure is 34.9%. For the compound `CC(C)(C)c1ccc(C(=O)Nc2ccc(OCc3cc(=O)n4ccsc4n3)cc2)cc1`, the “activity change, positive = activation” value is inactive: -6.29%. Turning to `COc1cc(CSc2ncc(CO)n2Cc2ccc(C)cc2)cc(OC)c1`, the activity change, positive = activation was 7.54%.

For the compound `Cc1cccc(N2C(=O)C(CC(=O)Nc3ccc(F)cc3)N(C3CCCC3)C2=O)c1` (stereo unspecified), the activity change, positive = activation is -10.9%. The same measure, in the same setting: as for `Cc1oc2ccc(O)c(CN3CCN(C)CC3)c2c1C(=O)Nc1ccc(C(C)C)cc1`, the figure is 1.96%.
